The target in this assay is human Gal-1 (hGal-1) (Homo sapiens, UniProt P09382). Put plainly: Competitive binding assay: biotinylated hGal-1 binding to microplate-adsorbed asialofetuin (ASF), spectrophotometric. As to conditions: hGal-1 binding to asialofetuin; Table 15; R and S epimers of selected Examples also listed; read-out: IC50 (Galectin-1 inhibition). The procedure: Biological Assay Evaluation of Compound Inhibitory Activity (IC50)
The inhibitory activity of compounds is determined in competitive binding assays. This spectrophotometric assay measures the binding of biotinylated human Gal-3 (hGal-3) or human Gal-1 (hGal-1), respectively, to a microplate-adsorbed glycoprotein, asialofetuin (ASF) (Proc Natl Acad Sci USA. 2013 Mar. 26; 110(13):5052-7.).
Briefly, compounds are serially diluted in DMSO (working dilutions). ASF-coated 384well plates are supplemented with 22.8 μL/well of biotinylated hGal-3 or hGal-1 in assay buffer (i.e. 300-1000 ng/mL biotinylated hGal-3 or hGal-1) to which 1.2 μL of compound working dilutions are added and mixed.
Plates are incubated for 3 hours at 4° C., then washed with cold assay buffer (3×50 uL), incubated for 1 hour with 25 μL/well of a streptavidin-peroxidase solution (diluted in assay buffer to 80 ng/mL) at 4° C., followed by further washing steps with assay buffer (3×50 uL). Finally, 25 μL/well of ABTS substrate is added.
The calculated IC50 values may fluctuate depending on the daily assay performance. Fluctuations of this kind are known to those skilled in the art. IC50 values from several measurements are given as mean values.

Each structure is given as a SMILES string. Certain results were filed several times, with different values. This is not the full list of results. The source may hold further records. Values that stand side by side read as repeated measurements on other runs, samples or individuals.

Experimental findings from US12410208B2, “(2-acetamidyl)thio-beta-D-galactopyranoside derivatives” (Idorsia Pharmaceuticals Ltd, priority 2020, dated 2025) are described below.

human Gal-1 (hGal-1), sequence (P09382 whole entry): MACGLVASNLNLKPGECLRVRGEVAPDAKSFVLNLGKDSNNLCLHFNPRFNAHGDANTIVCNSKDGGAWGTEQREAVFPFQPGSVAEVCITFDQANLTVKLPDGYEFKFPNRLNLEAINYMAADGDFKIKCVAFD

A word on the IC50: it is the concentration that inhibits the measured activity by half. In the case of `CCN(C(=O)C(S[C@@H]1O[C@H](CO)[C@H](O)[C@H](n2cc(-c3cc(F)c(F)c(F)c3)nn2)[C@H]1OC)C1(O)CCC(F)(F)CC1)C1CC1` (stereo partly shown) [Example 2.44.238.I.], the IC50 was 60 nM and 11 µM [one table].
